Results reported in US7592316B2, “Peptides as NS3-serine protease inhibitors of hepatitis C virus” (Schering Corporation, priority 2000, dated 2009).

Each compound was assayed against HCV NS3/NS4A protease (strain 1a) (Hepatitis C virus genotype 1a, UniProt P27958) (assay: biochemical). Conditions: Compounds prepared by Solid Phase Synthesis, Table 3; read-out: Ki* CLASS.

Compound | Ki
CCCCC(NC(=O)CNC(=O)C(=O)C(CCC)NC(=O)[C@@H]1Cc2ccccc2CN1C(=O)C(NC(=O)OCC(C)C)C1CCCCC1)C(N)=O (stereo partly drawn) (Isobutyloxycarbonyl-[ξChg][Tic][X2]G[ξNle]-NH2) | > 1000 nM
CCCC(NC(=O)[C@@H]1C[C@@H](OCc2ccccc2)CN1C(=O)[C@H](CCCC(=O)OC(C)(C)C)NC(=O)c1ccccc1C(N)=O)C(=O)C(=O)NCC(=O)N[C@H](C(N)=O)c1ccccc1 (stereo partly drawn) (X59-[Aad](OtBu)[Hyp](Bn)[X2]G[Phg]-NH2) | > 1000 nM
CCCCC(NC(=O)[C@@H]1C[C@@H](OCc2ccccc2)CN1C(=O)C(NC(=O)CC1CCCCC1)C1CCCCC1)C(=O)C(=O)NCC(=O)NC(C(N)=O)c1ccccc1 (stereo partly drawn) (Cyclohexylacetyl-[ξChg][Hyp](Bn)[X4]G[ξPhg]-NH2) | 1 to 100 nM
CCCC(NC(=O)[C@@H]1C[C@@H](OC(C)(C)C)CN1C(=O)[C@@H](NC(=O)c1c(F)cccc1F)C1CCCCC1)C(=O)C(=O)NCC(=O)NC(C(N)=O)c1cc(OC)cc(OC)c1 (stereo partly drawn) ({Benzoyl(2,6-F2)}-[Chg][Hyp](tBu)[X2]G[ξPhg(3,5-(OMe)2)]-NH2) | 101 to 1000 nM
CCCC(NC(=O)[C@@H]1C[C@@H](OC(C)(C)C)CN1C(=O)[C@@H](NC(=O)[C@@H](NS(C)(=O)=O)C(C)C)C1CCCCC1)C(=O)C(=O)NCC(=O)NC(CC(N)=O)c1ccccc1 (stereo partly drawn) (Ms-V[Chg][Hyp](tBu)[X2]G-X75) | 101 to 1000 nM

Same assay, conditions: HCV protease continuous assay results, Table 1; read-out: Ki* Range

Ki | Compound
> 1000 nM | CCCCC(NC(=O)[C@@H]1C[C@@H](OC(C)(C)C)CN1C(=O)[C@@H](NC(=O)OCC(C)C)C(C)(C)C)C(=O)C(=O)NCC(=O)NC[C@H](NC(=O)OC(C)(C)C)c1ccccc1 (stereo partly drawn) [Example 286]
> 1000 nM | CCCCC(NC(=O)[C@@H]1C[C@@H](OC(C)(C)C)CN1C(=O)[C@@H](NC(=O)OCC(C)C)C(C)(C)C)C(=O)C(=O)NCC(=O)NC[C@@H](N)c1ccccc1 (stereo partly drawn) [Example 295]
1 to 100 nM | CCCCC(NC(=O)[C@@H]1C[C@@H](Oc2cc(-c3ccccc3)nc3cc(OC)ccc23)CN1C(=O)[C@@H](NC(=O)OC(C)(C)C)C(C)C)C(=O)C(=O)NCC(=O)N[C@H](C(=O)N(C)C)c1ccccc1 (stereo partly drawn) [Example 319]
101 to 1000 nM | CCCCC(NC(=O)C1[C@@H]2[C@H](CN1C(=O)[C@@H](NC(=O)OCC(C)C)C(C)(C)C)C2(C)C)C(=O)C(=O)NCC(=O)N[C@H](C(=O)N(C)C)c1ccccc1 (stereo partly drawn) [Example 329]
> 1000 nM | C=CCOC(=O)CNC(=O)C(=O)C(CCC)NC(=O)[C@@H]1CCCN1C(=O)c1ccc(N2CCN(C(=O)c3ccccc3)CC2)cc1 (stereo partly drawn) [Example 6]
101 to 1000 nM | C=CCCC(NC(=O)[C@@H]1[C@@H]2[C@H](CN1C(=O)[C@@H](NC(=O)OC(C)(C)C)C(C)(C)C)C2(C)C)C(=O)C(=O)NCCC(=O)OCC (stereo partly drawn) [Example 348]

Compound | Ki
CCCC(NC(=O)[C@@H]1CC2(CN1C(=O)[C@@H](NC(=O)c1cc(Cl)c(Cl)cc1C(=O)O)C1CCCCC1)SCCCS2)C(=O)C(=O)NCC(=O)NC(C(N)=O)c1ccccc1 (stereo partly drawn) [Example 108] ({Benzoyl(2-COOH-4,5-Cl2)}-[Chg][Pro(4,4-S(CH2)3S)][X2]G[ξPhg]-NH2) | 1 to 100 nM
CCCCC(NC(=O)[C@@H]1C[C@@H](OC(C)(C)C)CN1C(=O)[C@@H](NC(=O)OCC(C)C)C(C)(C)C)C(=O)C(=O)NCC(=O)N[C@H](C(=O)N(C)C)c1cccs1 (stereo partly drawn) [Example 317] (Isobutyloxycarbonyl-[Tle][Hyp](tBu)[X4]G[Gly(2-thienyl)]-NMe2) | 1 to 100 nM

Same assay, conditions: Table 4; HCV NS3/NS4A protease, spectrophotometric assay, 30° C., pH 6.5; read-out: Ki* Range

Compound | Ki
CCC[C@H](NC(=O)[C@@H]1[C@H]2C[C@H]2CN1C(=O)[C@@H](NC(=O)O[C@H](C)C(C)C)C1(C)CCCCC1)C(=O)C(=O)NCC(=O)N[C@H](C(=O)N(C)C)c1ccccc1 (X20-[Gly(1-Me-cHex)][Pro(3S,4R-methano)][X12]G[Phg]-NMe2) | 1 to 100 nM
CCCC(NC(=O)[C@@H]1C[C@@](C)(CCC)CN1C(=O)[C@@H](NC(=O)OCC(C)C)C1CCCCC1)C(=O)C(=O)NCC(=O)NC(C(=O)N(C)C)c1ccccc1 (stereo partly drawn) | 1 to 100 nM
CCCC(NC(=O)C1C[C@@H](OC(C)(C)C)CN1C(=O)[C@@H](NC(=O)OCC(C)(C)C)C1CCCCC1)C(=O)C(=O)NCC(=O)N[C@H](C(=O)O)c1ccccc1 (stereo partly drawn) (Neopentyloxycarbonyl-[Chg][ξPro(4R-OtBu)][X2]G[Phg]-OH) | 101 to 1000 nM
CCCC(NC(=O)[C@@H]1C[C@@H](NC(=O)Nc2ccccc2)CN1C(=O)[C@@H](NC(=O)c1ccccc1C(=O)O)C1CCCCC1)C(=O)C(=O)NCC(=O)N[C@H](C(N)=O)c1ccccc1 (stereo partly drawn) | > 1000 nM

Same assay, conditions: Table 5; HCV NS3/NS4A protease, 30° C., pH 6.5; read-out: Ki* Range

Ki | Compound
101 to 1000 nM | CC(C)(C)OC(=O)N[C@H](C(=O)N1C[C@H]2[C@@H]([C@H]1C(=O)NC(CC(F)(F)F)C(=O)C(=O)NCCS(=O)(=O)C(C)(C)C)C2(C)C)C1CCCCC1 (stereo partly drawn)
1 to 100 nM | C=CCNC(=O)C(=O)C(CCC)NC(=O)[C@@H]1[C@H]2[C@@H](CN1C(=O)C(NC(=O)OC1CCCC1C)C1CCCCC1)C2(C)C (stereo partly drawn) [drawing 2030]
101 to 1000 nM | C=CCCC(NC(=O)[C@@H]1[C@H]2[C@@H](CN1C(=O)[C@@H](NC(=O)OCC(C)C)C1Cc3ccccc3C1)C2(C)C)C(=O)C(=O)NCC=C (stereo partly drawn)
1 to 100 nM | C=CCCNC(=O)C(=O)C(CCC=C)NC(=O)[C@@H]1[C@@H]2[C@H](CN1C(=O)[C@@H](NC(=O)NC1CCCCC1)C(C)(C)C)C2(C)C (stereo partly drawn)

Same assay, conditions: Table 5; HCV NS3/NS4A protease, spectrophotometric assay, 30° C., pH 6.5; read-out: Ki* Range

Ki | Compound
> 1000 nM | C=CCNC(=O)C(=O)C(CCC)NC(=O)C1[C@H]2[C@@H](CN1C(=O)C(NC(=O)Cc1ccccc1)C(C)(C)C)C2(C)C (stereo partly drawn)
1 to 100 nM | C=CCCC(NC(=O)[C@@H]1[C@H]2[C@@H](CN1C(=O)[C@@H](NC(=O)NC(C)(C)C)C1Cc3ccccc3C1)C2(C)C)C(=O)C(=O)NCC=C (stereo partly drawn)
> 1000 nM | CCCC(NC(=O)[C@@H]1CC(C)(C)CN1C(=O)[C@@H](NC(=O)OC(C)(C)C)C(C)(C)C)C(=O)C(N)=O (stereo partly drawn)

*1 amine or outer side, *2 acyl side, *3 side chain or, on linkers, in order; H or OH if unused. Where a SMILES comes first, the peptide text is derived from it. [ ]: non-standard residue; d: D form. The star is where a group is joined. ξ: configuration not given here. Benzoyl(2-COOH-4,5-Cl2) = O=C(O)c1cc(Cl)c(Cl)cc1C(=O)*; Pro(3S,4R-methano) = O=C(O)[C@H]1NC[C@@H]2C[C@@H]21; Pro(4,4-S(CH2)3S) = O=C(O)[C@@H]1CC2(CN1)SCCCS2; ξPhg(3,5-(OMe)2) = COc1cc(OC)cc(C(N)C(=O)O)c1; ξPro(4R-OtBu) = CC(C)(C)O[C@H]1CNC(C(=O)O)C1; Gly(1-Me-cHex) = CC1([C@H](N)C(=O)O)CCCCC1; Neopentyloxycarbonyl = CC(C)(C)COC(=O)*; Gly(2-thienyl) = N[C@H](C(=O)O)c1cccs1; X12 = CCC[C@H](N[*:1])C(=O)C(=O)[*:2]; Benzoyl(2,6-F2) = O=C(c1c(F)cccc1F)*; Isobutyloxycarbonyl = CC(C)COC(=O)*; Cyclohexylacetyl = O=C(CC1CCCCC1)*; X4 = CCCCC(N[*:1])C(=O)C(=O)[*:2]; Hyp = O=C(O)[C@@H]1C[C@@H](O)CN1; X2 = CCCC(N[*:1])C(=O)C(=O)[*:2]; Tic = O=C(O)[C@@H]1Cc2ccccc2CN1; Aad = N[C@@H](CCCC(=O)O)C(=O)O; Chg = N[C@H](C(=O)O)C1CCCCC1; Phg = N[C@H](C(=O)O)c1ccccc1; Tle = CC(C)(C)[C@H](N)C(=O)O; X20 = CC(C)[C@@H](C)OC(=O)*; X59 = NC(=O)c1ccccc1C(=O)*; X75 = NC(=O)CC(N*)c1ccccc1; ξChg = NC(C(=O)O)C1CCCCC1; ξPhg = NC(C(=O)O)c1ccccc1; ξNle = CCCCC(N)C(=O)O; Bn = c1ccc(C*)cc1; OtBu = CC(C)(C)O*; Ms = CS(=O)(=O)*; tBu = CC(C)(C)*
